Some of the results follow. Cut-off read from the data, not from the text of the source: active = 3.2 or more and inactive = the rest. The signal is at background level for most entries.
Target: SHP2 C-SH2 domain E139D
Experiment: enrichment score (SH2-bound / input frequency) (ratio); bacterial display of known human phosphotyrosine sites (pTyr-Var adds point mutants) read by sequencing; higher = stronger binding; tyrosines were phosphorylated by kinases first
Details: peptide library: Human pTyr
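Note: displayed peptides selected on beads carrying the immobilized SH2 domain, with library peptides lacking any tyrosine serving as negative controls.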

| Binder | enrichment score |
| --- | --- |
| DVHNLDAYKKTTNGR [FGFR3_HUMAN_648_YA] | inactive: 0.828 |
| SVSETDDYAEIIDEE [FAK1_HUMAN_397] | inactive: 1.4 |
| SAGAADHYGPDPTKA [FGR_HUMAN_34_YA] | inactive: 0.643 |
| KVPEDRVYEELNIYS [FCERB_HUMAN_219] | inactive: 0.77 |
| GAENTITYSLLMHPD [FCG2B_HUMAN_292] | active: 7.77 |
| IKTGAPQYGSYGTAP [FIP1L1_HUMAN_110] | inactive: 2.14 |
| GDFGLSRYMEDSTAA [FAK1_HUMAN_570_YA] | inactive: 0.615 |
| SSDNEYFYVDFREYE [FLT3_HUMAN_591] | inactive: 2.02 |
| VDFREYEYDLKWEFP [FLT3_HUMAN_599] | inactive: 1.21 |
| ADAEEAMYQNVDGRV [FLT3_HUMAN_955] | inactive: 0.796 |
| AEKSDGVYTGLSTRN [FCERG_HUMAN_65_YA] | inactive: 0.703 |
| DEVIITGYCQGDGYR [FAAA_HUMAN_395] | inactive: 1.41 |
| GVHHIDAYKKTSNGR [FGFR4_HUMAN_643_YA] | inactive: 0.821 |
| YIEDEDYYKASVTRL [FAK2_HUMAN_580] | inactive: 0.945 |
| KVPEDRVYEELNIAS [FCERB_HUMAN_219_YA] | inactive: 0.946 |
| DEVIITGYCQGDGAR [FAAA_HUMAN_395_YA] | inactive: 1.16 |
| DVHNLDYYKKTTNGR [FGFR3_HUMAN_648] | inactive: 0.584 |
| EEGRASIYKSVIINT [FMO5_HUMAN_56] | inactive: 0.918 |

Target: SHP2 C-SH2 domain wild-type
Experiment: as above
Details: peptide library: Human pTyr

| Binder | enrichment score |
| --- | --- |
| DVHNLDAYKKTTNGR [FGFR3_HUMAN_648_YA] | inactive: 0.831 |
| SVSETDDYAEIIDEE [FAK1_HUMAN_397] | inactive: 1.31 |
| SAGAADHYGPDPTKA [FGR_HUMAN_34_YA] | inactive: 0.47 |
| KVPEDRVYEELNIYS [FCERB_HUMAN_219] | inactive: 0.827 |
| GAENTITYSLLMHPD [FCG2B_HUMAN_292] | active: 11.6 |
| IKTGAPQYGSYGTAP [FIP1L1_HUMAN_110] | inactive: 0.75 |
| GDFGLSRYMEDSTAA [FAK1_HUMAN_570_YA] | inactive: 0.61 |
| SSDNEYFYVDFREYE [FLT3_HUMAN_591] | inactive: 1.43 |
| VDFREYEYDLKWEFP [FLT3_HUMAN_599] | inactive: 1.53 |
| ADAEEAMYQNVDGRV [FLT3_HUMAN_955] | inactive: 0.65 |
| AEKSDGVYTGLSTRN [FCERG_HUMAN_65_YA] | inactive: 0.537 |
| DEVIITGYCQGDGYR [FAAA_HUMAN_395] | inactive: 1.25 |
| GVHHIDAYKKTSNGR [FGFR4_HUMAN_643_YA] | inactive: 0.849 |
| YIEDEDYYKASVTRL [FAK2_HUMAN_580] | inactive: 1.06 |
| KVPEDRVYEELNIAS [FCERB_HUMAN_219_YA] | inactive: 0.837 |
| DEVIITGYCQGDGAR [FAAA_HUMAN_395_YA] | inactive: 1.14 |
| DVHNLDYYKKTTNGR [FGFR3_HUMAN_648] | inactive: 0.984 |
| EEGRASIYKSVIINT [FMO5_HUMAN_56] | inactive: 0.9 |

Target: SHP2 N-SH2 domain L43F
Experiment: as above
Details: peptide library: Human pTyr

| Binder | enrichment score |
| --- | --- |
| DVHNLDAYKKTTNGR [FGFR3_HUMAN_648_YA] | inactive: 0.89 |
| SVSETDDYAEIIDEE [FAK1_HUMAN_397] | inactive: 1.15 |
| SAGAADHYGPDPTKA [FGR_HUMAN_34_YA] | inactive: 0.501 |
| KVPEDRVYEELNIYS [FCERB_HUMAN_219] | inactive: 0.76 |
| GAENTITYSLLMHPD [FCG2B_HUMAN_292] | active: 8.09 |
| IKTGAPQYGSYGTAP [FIP1L1_HUMAN_110] | inactive: 0.925 |
| GDFGLSRYMEDSTAA [FAK1_HUMAN_570_YA] | inactive: 0.682 |
| SSDNEYFYVDFREYE [FLT3_HUMAN_591] | inactive: 1.51 |
| VDFREYEYDLKWEFP [FLT3_HUMAN_599] | inactive: 1.19 |
| ADAEEAMYQNVDGRV [FLT3_HUMAN_955] | inactive: 0.779 |
| AEKSDGVYTGLSTRN [FCERG_HUMAN_65_YA] | inactive: 0.793 |
| DEVIITGYCQGDGYR [FAAA_HUMAN_395] | inactive: 1.12 |
| GVHHIDAYKKTSNGR [FGFR4_HUMAN_643_YA] | inactive: 1.11 |
| YIEDEDYYKASVTRL [FAK2_HUMAN_580] | inactive: 0.669 |
| KVPEDRVYEELNIAS [FCERB_HUMAN_219_YA] | inactive: 0.802 |
| DEVIITGYCQGDGAR [FAAA_HUMAN_395_YA] | inactive: 1.02 |
| DVHNLDYYKKTTNGR [FGFR3_HUMAN_648] | inactive: 0.657 |
| EEGRASIYKSVIINT [FMO5_HUMAN_56] | inactive: 0.737 |

Target: SHP2 N-SH2 domain T42A
Experiment: as above
Details: peptide library: Human pTyr

| Binder | enrichment score |
| --- | --- |
| DVHNLDAYKKTTNGR [FGFR3_HUMAN_648_YA] | inactive: 0.763 |
| SVSETDDYAEIIDEE [FAK1_HUMAN_397] | inactive: 1.18 |
| SAGAADHYGPDPTKA [FGR_HUMAN_34_YA] | inactive: 0.612 |
| KVPEDRVYEELNIYS [FCERB_HUMAN_219] | inactive: 0.719 |
| GAENTITYSLLMHPD [FCG2B_HUMAN_292] | active: 12.2 |
| IKTGAPQYGSYGTAP [FIP1L1_HUMAN_110] | inactive: 0.807 |
| GDFGLSRYMEDSTAA [FAK1_HUMAN_570_YA] | inactive: 0.618 |
| SSDNEYFYVDFREYE [FLT3_HUMAN_591] | inactive: 1.38 |
| VDFREYEYDLKWEFP [FLT3_HUMAN_599] | inactive: 1.29 |
| ADAEEAMYQNVDGRV [FLT3_HUMAN_955] | inactive: 0.611 |
| AEKSDGVYTGLSTRN [FCERG_HUMAN_65_YA] | inactive: 0.662 |
| DEVIITGYCQGDGYR [FAAA_HUMAN_395] | inactive: 1.12 |
| GVHHIDAYKKTSNGR [FGFR4_HUMAN_643_YA] | inactive: 0.811 |
| YIEDEDYYKASVTRL [FAK2_HUMAN_580] | inactive: 0.801 |
| KVPEDRVYEELNIAS [FCERB_HUMAN_219_YA] | inactive: 0.85 |
| DEVIITGYCQGDGAR [FAAA_HUMAN_395_YA] | inactive: 1.44 |
| DVHNLDYYKKTTNGR [FGFR3_HUMAN_648] | inactive: 0.726 |
| EEGRASIYKSVIINT [FMO5_HUMAN_56] | inactive: 0.804 |

Target: SHP2 N-SH2 domain T52S
Experiment: as above
Details: peptide library: Human pTyr

| Binder | enrichment score |
| --- | --- |
| DVHNLDAYKKTTNGR [FGFR3_HUMAN_648_YA] | inactive: 0.77 |
| SVSETDDYAEIIDEE [FAK1_HUMAN_397] | inactive: 1.33 |
| SAGAADHYGPDPTKA [FGR_HUMAN_34_YA] | inactive: 0.633 |
| KVPEDRVYEELNIYS [FCERB_HUMAN_219] | inactive: 0.864 |
| GAENTITYSLLMHPD [FCG2B_HUMAN_292] | active: 4.81 |
| IKTGAPQYGSYGTAP [FIP1L1_HUMAN_110] | inactive: 0.67 |
| GDFGLSRYMEDSTAA [FAK1_HUMAN_570_YA] | inactive: 0.653 |
| SSDNEYFYVDFREYE [FLT3_HUMAN_591] | inactive: 1.87 |
| VDFREYEYDLKWEFP [FLT3_HUMAN_599] | inactive: 1.72 |
| ADAEEAMYQNVDGRV [FLT3_HUMAN_955] | inactive: 0.622 |
| AEKSDGVYTGLSTRN [FCERG_HUMAN_65_YA] | inactive: 0.625 |
| DEVIITGYCQGDGYR [FAAA_HUMAN_395] | inactive: 1.46 |
| GVHHIDAYKKTSNGR [FGFR4_HUMAN_643_YA] | inactive: 0.847 |
| YIEDEDYYKASVTRL [FAK2_HUMAN_580] | inactive: 0.951 |
| KVPEDRVYEELNIAS [FCERB_HUMAN_219_YA] | inactive: 0.897 |
| DEVIITGYCQGDGAR [FAAA_HUMAN_395_YA] | inactive: 1.24 |
| DVHNLDYYKKTTNGR [FGFR3_HUMAN_648] | inactive: 1.15 |
| EEGRASIYKSVIINT [FMO5_HUMAN_56] | inactive: 0.951 |

Target: SHP2 N-SH2 domain wild-type
Experiment: as above
Details: peptide library: Human pTyr

| Binder | enrichment score |
| --- | --- |
| DVHNLDAYKKTTNGR [FGFR3_HUMAN_648_YA] | inactive: 0.656 |
| SVSETDDYAEIIDEE [FAK1_HUMAN_397] | inactive: 2.09 |
| SAGAADHYGPDPTKA [FGR_HUMAN_34_YA] | inactive: 0.818 |
| KVPEDRVYEELNIYS [FCERB_HUMAN_219] | inactive: 0.734 |
| GAENTITYSLLMHPD [FCG2B_HUMAN_292] | inactive: 1.62 |
| IKTGAPQYGSYGTAP [FIP1L1_HUMAN_110] | inactive: 0.692 |
| GDFGLSRYMEDSTAA [FAK1_HUMAN_570_YA] | inactive: 0.599 |
| SSDNEYFYVDFREYE [FLT3_HUMAN_591] | inactive: 1.77 |
| VDFREYEYDLKWEFP [FLT3_HUMAN_599] | inactive: 1.83 |
| ADAEEAMYQNVDGRV [FLT3_HUMAN_955] | inactive: 0.908 |
| AEKSDGVYTGLSTRN [FCERG_HUMAN_65_YA] | inactive: 0.922 |
| DEVIITGYCQGDGYR [FAAA_HUMAN_395] | inactive: 2 |
| GVHHIDAYKKTSNGR [FGFR4_HUMAN_643_YA] | inactive: 0.809 |
| YIEDEDYYKASVTRL [FAK2_HUMAN_580] | inactive: 0.76 |
| KVPEDRVYEELNIAS [FCERB_HUMAN_219_YA] | inactive: 0.808 |
| DEVIITGYCQGDGAR [FAAA_HUMAN_395_YA] | inactive: 1.42 |
| DVHNLDYYKKTTNGR [FGFR3_HUMAN_648] | inactive: 0.671 |
| EEGRASIYKSVIINT [FMO5_HUMAN_56] | inactive: 0.734 |

Reference: the supplement of paper PMC10369915
